In the RNAGym collection of RNA variant scans (doi:10.7554/elife.90254):
Read counts are not given, so values of variants with three or more changes are uncertain.

B1: LINE1-mini (parent)
chain: GGCAGAGCUCAACACAGCGUGGCAAAGUGGCUGUGGCUAGACUGCC

Variants of: B1
Experiment: self-cleavage, relative activity (ratio to wild type); higher = more cleavage; in vitro, sequencing; the parent is a self-cleaving ribozyme
Work on A6C G36C U38C yielded a self-cleavage of 0.02.
For G1U C8G C13U U38C, the self-cleavage was 0.02.
A14C G35C A41G C42A gave a self-cleavage of 0.01.
With C8A A25C G30A G40U the self-cleavage was 0.2.
U9C A11G G40U C45G showed a self-cleavage of 0.01.
Work on G1C A14U U20C G40A G44C yielded a self-cleavage of 0.01.
For G2A G7A C10A G17U, the self-cleavage was 0.11.
Variant G7C A11U G22U C23A A24U G27U has a self-cleavage of 0.03.
In the case of U9A A12G A39U, the self-cleavage is reported as 0.03.
Variant C10U G21A A39G has a self-cleavage of 0.17.
In the case of C8G C10A A14C G30A U38C, the self-cleavage is reported as 0.01.
With C18U G27A C37U the self-cleavage was 0.04.
With A16U U43G C45A the self-cleavage was 0.07.
With A14U G35A C37U the self-cleavage was 0.01.
G21U A25U U28C showed a self-cleavage of 1.44.
Variant G2C C3U A4U has a self-cleavage of 0.
With C8A A12U C13G G30A the self-cleavage was 0.03.
C8G G19U G22U G36C showed a self-cleavage of 0.07.
With G1A C15A U28A C31G the self-cleavage was 0.02.
Variant G5C A11C U32G has a self-cleavage of 0.01.
In the case of G17A A25C A39U G40A C42U, the self-cleavage is reported as 0.06.
In the case of U28A G29A C42U, the self-cleavage is reported as 0.07.
With C3U G22U U28A the self-cleavage was 0.33.
C3U A6G A12U A24U G29U C42G C46U showed a self-cleavage of 0.03.
For G22A G27U G33U A39C, the self-cleavage was 0.02.
With A14U C23A C46U the self-cleavage was 0.6.
Work on G5U C10A C15A A25C G29A C42G yielded a self-cleavage of 0.01.
Variant A4U C15U U34G has a self-cleavage of 0.05.
G17U U20A A24C C31U showed a self-cleavage of 0.14.
Work on C3U C8A C18G G19C A26G C46U yielded a self-cleavage of 0.35.
U9A C10U C15U gave a self-cleavage of 0.07.
Work on C13A C23U C46U yielded a self-cleavage of 0.04.
In the case of C3U C13A U20G U34A U38G, the self-cleavage is reported as 0.01.
A11C G19A G22C showed a self-cleavage of 0.03.
For A6C C13G U20A G44A, the self-cleavage was 0.05.
For G17U G30U C37U, the self-cleavage was 0.06.
With G1A G2U C3U A16U G36C G44C the self-cleavage was 0.01.
Variant G7C C10G U20C G44C has a self-cleavage of 0.02.
Variant U20G G21U G29A G44U has a self-cleavage of 0.06.
C8A C13G G44C showed a self-cleavage of 0.09.
For A6C C10U G19C G30A A39U, the self-cleavage was 0.28.
For C8A G27A G40U U43G, the self-cleavage was 0.55.
Work on C23G G29A U34G yielded a self-cleavage of 0.05.
For C15G G17A G22C U32G, the self-cleavage was 0.06.
C8G G17A A41U gave a self-cleavage of 0.05.
Work on G1U A16C C18U C31U U38A C46A yielded a self-cleavage of 0.01.
Work on C8U G17C A26C G40A yielded a self-cleavage of 0.2.
C10A G19A A39G showed a self-cleavage of 0.
In the case of C8U G17A C31A, the self-cleavage is reported as 0.09.
For A6G C8G A25C U32C A39G, the self-cleavage was 0.07.
With A24U C31U A41G the self-cleavage was 0.
C23U G33C U38G gave a self-cleavage of 0.01.
A6U G7U C18A G29C U32A C46G showed a self-cleavage of 0.03.
In the case of G7U C8A G44A, the self-cleavage is reported as 0.48.
G1A U9C G22A A26U U34C showed a self-cleavage of 0.07.
For A4G G22C U28A U38G U43G C45A, the self-cleavage was 0.
G1C C13A A25U C42G showed a self-cleavage of 0.01.
C10U C37G C45U gave a self-cleavage of 0.02.
G7A G30A C37A A39C gave a self-cleavage of 0.19.
With C3U C8G C13G the self-cleavage was 0.53.
Work on G7C C10U C45G yielded a self-cleavage of 0.04.
Variant A16U U20G G35C has a self-cleavage of 0.03.
With G22C U38A G40C the self-cleavage was 0.12.
For C3A A6G C13A G22A C31G G40U, the self-cleavage was 0.09.
G5C A26C G30C showed a self-cleavage of 0.08.
For C15A G29U U32C, the self-cleavage was 0.07.
U9G C10U C15U G33A A41C showed a self-cleavage of 0.05.
Variant G7C U9G G29U has a self-cleavage of 0.13.
Work on G1A C15G G17A yielded a self-cleavage of 0.03.
Variant G5A C13A U20G has a self-cleavage of 0.08.
Variant C18U U28G G30A has a self-cleavage of 0.89.
In the case of A4C G29A G33U C46A, the self-cleavage is reported as 0.03.
G1C G2U C13A A16U G30U C31G A41C gave a self-cleavage of 0.09.
Variant G5A G19A C46A has a self-cleavage of 0.05.
G19C G22C U32G U43C gave a self-cleavage of 0.
Variant G7A G21A G22A G33C has a self-cleavage of 0.18.
In the case of C13U G40A C42A, the self-cleavage is reported as 0.06.
Variant A14G G21A C23G U32A has a self-cleavage of 0.02.
Work on G5A G17A C23G G36U yielded a self-cleavage of 0.04.
For G7U U20A G29C U32C U34C G36C C37A A39C, the self-cleavage was 0.
In the case of A6G C10A U34A, the self-cleavage is reported as 0.07.
G2A G5U A26U C42U showed a self-cleavage of 0.07.
Work on G7U C10G A25C C46A yielded a self-cleavage of 0.03.
Work on C3U A4U C10A A12G A16U G19A G33U G40A yielded a self-cleavage of 0.01.
For A11C C18G A24U U32A, the self-cleavage was 0.03.
U20A C31U G33A showed a self-cleavage of 0.04.
With C3G A11G A26C the self-cleavage was 0.01.
A6G G35C C45A gave a self-cleavage of 0.03.
G1U A14C G19U showed a self-cleavage of 0.02.
With G5C A6G U32A G33A the self-cleavage was 0.03.
Variant A6C A12G A39U has a self-cleavage of 0.06.
With C10U A25C U28A the self-cleavage was 0.24.
Work on C15G G17A G44U yielded a self-cleavage of 0.01.
For C10G C15A U20G C31U G36A G40A, the self-cleavage was 0.01.
In the case of A16C G36A C46A, the self-cleavage is reported as 0.06.
A4U G5C G27A C45G showed a self-cleavage of 0.03.
With G22C G29C C46U the self-cleavage was 0.41.
For A6C C31A C42A C45U, the self-cleavage was 0.01.
In the case of A4C A25C G33C A39U C45U, the self-cleavage is reported as 0.02.
With G7U A26U U38G the self-cleavage was 0.
Work on C18A U34A A39G yielded a self-cleavage of 0.03.
With G1A C3U C15G A25C G44U the self-cleavage was 0.06.
In the case of A26C G27C C31U C37U, the self-cleavage is reported as 0.03.
Work on U9A C18U G19C U28A G40U yielded a self-cleavage of 0.05.
For G30U C31G C42A, the self-cleavage was 0.15.
For G1U C10G C15U A16C A24U G30U C37G A39G, the self-cleavage was 0.02.
With A6G U20C A26C the self-cleavage was 0.
In the case of A11G A25U G40U U43A C45U, the self-cleavage is reported as 0.02.
Work on A12U A14U U34C C37G yielded a self-cleavage of 0.02.
C3U G17A C42U showed a self-cleavage of 0.04.
C10A U34C G35A G40U gave a self-cleavage of 0.02.
Variant U34A G36C G40C C42A has a self-cleavage of 0.03.
Work on G5A G30U G33U yielded a self-cleavage of 0.11.
G5U U20A U28C showed a self-cleavage of 0.24.
In the case of G1U G29U G30A, the self-cleavage is reported as 0.06.
With C3A A14U A26C the self-cleavage was 0.23.
With G7U G19C A25U G27U G33U C42U the self-cleavage was 0.01.
With C3U C10A C37A the self-cleavage was 0.01.
C3A G21C U28A G30U C45G showed a self-cleavage of 0.02.
C13G G21A G27A C46A showed a self-cleavage of 0.25.
Work on U9A A14U G36C yielded a self-cleavage of 0.02.
In the case of A24C G44C C45U, the self-cleavage is reported as 0.05.
With G22U G27U U32A G44A the self-cleavage was 0.04.
A12U U20C G27U G30C showed a self-cleavage of 0.42.
C10U G21A A24U A26C U43A G44A gave a self-cleavage of 0.05.
G1U G2C G17A G19C gave a self-cleavage of 0.05.
For C3A A6G G36A C42A, the self-cleavage was 0.15.
U20A G22A A26G G40C showed a self-cleavage of 0.05.
G2U G5A A24C A25C G33A U38G showed a self-cleavage of 0.01.
G1C A14G G21A U34G U38G A41C gave a self-cleavage of 0.
A11U G30U G36U gave a self-cleavage of 0.95.
In the case of A4C A11G G22U A24U, the self-cleavage is reported as 0.02.
Work on C3G G5C G17U yielded a self-cleavage of 0.1.
In the case of G2C A12C C13A U28C G33C, the self-cleavage is reported as 0.01.
Work on A26C U28A C42A C46U yielded a self-cleavage of 0.15.
Work on C31U C37A C42U yielded a self-cleavage of 0.11.
Variant U9C U20G U32G G33A has a self-cleavage of 0.01.
G2A A4G C15A A16C G21U A24C C37G C45G gave a self-cleavage of 0.22.
G2U C3U A6U showed a self-cleavage of 0.14.
G1U C3U C42U showed a self-cleavage of 0.05.
G17A G27U A39G showed a self-cleavage of 0.07.
For G5U C15A G29U, the self-cleavage was 0.02.
With U9A G17A G30C U32G G36C the self-cleavage was 0.02.
For G2U G19C G33U, the self-cleavage was 0.01.
In the case of G2A A14C C15U A16C C46A, the self-cleavage is reported as 0.27.
Work on G2C G17A C18U U43A C45G yielded a self-cleavage of 0.04.
For U9G G21C G27U G44A, the self-cleavage was 0.04.
For C3U C15G A16U C31U, the self-cleavage was 0.08.
In the case of G2C A4C U20A G33U, the self-cleavage is reported as 0.01.
G21U U43G C46U showed a self-cleavage of 0.02.
Work on C3G A6U C42A yielded a self-cleavage of 0.18.
In the case of G2A C3G C18A A41C, the self-cleavage is reported as 0.27.
G5C C10G G36U gave a self-cleavage of 0.03.
G5U G7C A12U G27U gave a self-cleavage of 0.05.
Work on G2U U9A A11U G17U C18A C46A yielded a self-cleavage of 0.01.
G17C G29U G33A showed a self-cleavage of 0.04.
A12G C15A A24G U28C G44C showed a self-cleavage of 0.01.
G19U G27A G33A G44C gave a self-cleavage of 0.18.
Variant G2C G7A G33C has a self-cleavage of 0.27.
For A39U U43A C46A, the self-cleavage was 0.08.
Variant G2U G7U G29C has a self-cleavage of 0.02.
C3G A11G G22A gave a self-cleavage of 0.05.
For G22A G27C G29C G33U, the self-cleavage was 0.11.
Variant C8A C10U C18G has a self-cleavage of 0.05.
In the case of A14C U34C A41G C42G, the self-cleavage is reported as 0.01.
Variant G2U U9G C18U U43C has a self-cleavage of 0.03.
C18U A39U C45A gave a self-cleavage of 0.05.
